# From the supplement of paper PMC8728848
# Some of the results follow.
# B1: F17-L (Escherichia coli) (protein)
# chain: GPDDYVPSQIAVNTSTLPGVVIGPADAHTYPRVIGELAGTSNQYVFNGGAIALMRGKFTPALPKIGSITYTFHQGNSRDSSDFDIYDIGVSGLGIIIGMAGYWPATPLVPINSSGIYIDPVGANTNPNTYNGATASFGARLFVAFVATGRLPNGYITIPTRQLGTILLEAKRTSLNNKGLTAPVMLNGGRIQVQSQTHHHHHH
# Tests used:
# Assay in all cases: glycan array binding signal (z-score within array); higher = stronger binding
# Settings in all cases: glycan notation: IUPAC condensed, linker removed
# [1] = target: Neu5Ac(a2-8)Neu5Ac
# Summary of the method: (§1)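 Columns mapping to the same glycan were averaged after glycan names were converted to IUPAC-condensed notation. The data come from 3228 arrays in the Consortium for Functional Glycomics database, limited to those with an available protein sequence. Binding is reported as a within-array Z-score averaged across arrays of one protein sequence and across linkers.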
# [2] = target: Neu5Ac(a2-8)Neu5Ac(a2-3)Gal(b1-3)GalNAc(b1-4)[Neu5Ac(a2-3)]Gal(b1-4)Glc
# Summary of the method: as §1
# [3] = target: Neu5Ac(a2-8)Neu5Ac(a2-3)Gal(b1-3)GalNAc(b1-4)[Neu5Ac(a2-8)Neu5Ac(a2-3)]Gal(b1-4)Glc
# Summary of the method: as §1
# [4] = target: Neu5Ac(a2-8)Neu5Ac(a2-3)Gal(b1-4)Glc
# Summary of the method: as §1
# [5] = target: Neu5Ac(a2-8)Neu5Ac(a2-3)Gal(b1-4)GlcNAc
# Summary of the method: as §1
# [6] = target: Neu5Ac(a2-8)Neu5Ac(a2-3)[Gal(b1-3)GalNAc(b1-4)]Gal(b1-4)Glc
# Summary of the method: as §1
# [7] = target: Neu5Ac(a2-8)Neu5Ac(a2-3)[GalNAc(b1-4)]Gal(b1-4)Glc
# Summary of the method: as §1
# [8] = target: Neu5Ac(a2-8)Neu5Ac(a2-8)Neu5Ac
# Summary of the method: as §1
# [9] = target: Neu5Ac(a2-8)Neu5Ac(a2-8)Neu5Ac(a2-3)Gal(b1-4)Glc
# Summary of the method: as §1
# [10] = target: Neu5Ac(a2-8)Neu5Ac(a2-8)Neu5Ac(a2-3)[Gal(b1-3)GalNAc(b1-4)]Gal(b1-4)Glc
# Summary of the method: as §1
# [11] = target: Neu5Ac(a2-8)Neu5Ac(a2-8)Neu5Ac(a2-3)[GalNAc(b1-4)]Gal(b1-4)Glc
# Summary of the method: as §1
# [12] = target: Neu5Ac(a2-8)Neu5Ac(a2-8)Neu5Ac(a2-8)Neu5Ac(a2-3)[GalNAc(b1-4)]Gal(b1-4)Glc
# Summary of the method: as §1
# [13] = target: Neu5Ac(a2-8)Neu5Gc(a2-3)Gal(b1-4)GlcNAc
# Summary of the method: as §1
# [14] = target: Neu5Ac(b2-6)Gal(b1-4)GlcNAc
# Summary of the method: as §1
# [15] = target: Neu5Ac(b2-6)GalNAc
# Summary of the method: as §1
# [16] = target: Neu5Ac9Ac(a2-3)Gal(b1-4)GlcNAc
# Summary of the method: as §1
# [17] = target: Neu5Ac9Ac(a2-6)Gal(b1-4)GlcNAc
# Summary of the method: as §1
# [18] = target: Neu5Gc(a2-3)Gal(b1-3)GlcNAc
# Summary of the method: as §1
# [19] = target: Neu5Gc(a2-3)Gal(b1-3)[Fuc(a1-4)]GlcNAc
# Summary of the method: as §1
# [20] = target: Neu5Gc(a2-3)Gal(b1-4)Glc
# Summary of the method: as §1
# [21] = target: Neu5Gc(a2-3)Gal(b1-4)GlcNAc
# Summary of the method: as §1
# [22] = target: Neu5Gc(a2-3)Gal(b1-4)GlcNAc(b1-3)Gal(b1-4)GlcNAc(b1-2)Man(a1-3)[Neu5Gc(a2-3)Gal(b1-4)GlcNAc(b1-3)Gal(b1-4)GlcNAc(b1-2)Man(a1-6)]Man(b1-4)GlcNAc(b1-4)GlcNAc
# Summary of the method: as §1
# [23] = target: Neu5Gc(a2-3)Gal(b1-4)[Fuc(a1-3)]GlcNAc
# Summary of the method: as §1
# [24] = target: Neu5Gc(a2-6)Gal(b1-4)GlcNAc
# Summary of the method: as §1
# [25] = target: Neu5Gc(a2-6)GalNAc
# Summary of the method: as §1
# [26] = target: Neu5Gc(a2-8)Neu5Ac(a2-3)Gal(b1-4)GlcNAc
# Summary of the method: as §1
# [27] = target: Neu5Gc(a2-8)Neu5Gc(a2-3)Gal(b1-4)GlcNAc
# Summary of the method: as §1
# [28] = target: Neu5Gc(a2-8)Neu5Gc(a2-3)Gal(b1-4)GlcNAc(b1-3)Gal(b1-4)GlcNAc
# Summary of the method: as §1
# [29] = target: Neu5Gc(a2-8)Neu5Gc(a2-6)Gal(b1-4)GlcNAc
# Summary of the method: as §1
# [30] = target: Neu5Gc(b2-6)Gal(b1-4)GlcNAc
# Summary of the method: as §1
binder,measurement,setting,value
B1,glycan array binding signal (z-score),[1],-0.101
same,glycan array binding signal (z-score),[2],-0.141
same,glycan array binding signal (z-score),[3],-0.106
same,glycan array binding signal (z-score),[4],-0.156
same,glycan array binding signal (z-score),[5],-0.144
same,glycan array binding signal (z-score),[6],-0.045
same,glycan array binding signal (z-score),[7],-0.122
same,glycan array binding signal (z-score),[8],-0.045
same,glycan array binding signal (z-score),[9],-0.056
same,glycan array binding signal (z-score),[10],-0.129
same,glycan array binding signal (z-score),[11],-0.149
same,glycan array binding signal (z-score),[12],-0.113
same,glycan array binding signal (z-score),[13],-0.192
same,glycan array binding signal (z-score),[14],-0.112
same,glycan array binding signal (z-score),[15],-0.061
same,glycan array binding signal (z-score),[16],-0.143
same,glycan array binding signal (z-score),[17],-0.133
same,glycan array binding signal (z-score),[18],-0.015
same,glycan array binding signal (z-score),[19],-0.112
same,glycan array binding signal (z-score),[20],-0.186
same,glycan array binding signal (z-score),[21],-0.049
same,glycan array binding signal (z-score),[22],-0.008
same,glycan array binding signal (z-score),[23],-0.119
same,glycan array binding signal (z-score),[24],-0.145
same,glycan array binding signal (z-score),[25],-0.133
same,glycan array binding signal (z-score),[26],-0.117
same,glycan array binding signal (z-score),[27],-0.177
same,glycan array binding signal (z-score),[28],-0.129
same,glycan array binding signal (z-score),[29],-0.122
same,glycan array binding signal (z-score),[30],-0.15
